The BET-seq Pho4 binding data (Le et al. 2018)
The other results are listed elsewhere or left out. These are noisy estimates, calculated here from bound and input reads.

Each sequence was assayed against T1, Pho4 (S. cerevisiae) (UniProt P07270) (assay: relative binding free energy (BET-seq); higher = weaker binding). Details: reference: library average.
T1 sequence: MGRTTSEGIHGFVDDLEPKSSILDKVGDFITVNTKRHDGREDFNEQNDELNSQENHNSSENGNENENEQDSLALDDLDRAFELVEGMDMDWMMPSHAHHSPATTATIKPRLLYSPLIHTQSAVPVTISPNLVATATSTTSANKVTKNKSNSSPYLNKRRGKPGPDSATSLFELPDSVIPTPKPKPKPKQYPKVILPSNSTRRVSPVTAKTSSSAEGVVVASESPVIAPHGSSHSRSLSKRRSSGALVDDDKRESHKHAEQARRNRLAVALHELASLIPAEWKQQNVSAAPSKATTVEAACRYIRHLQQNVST

Sequence	relative binding free energy [kcal/mol]
TCTATCACGTGTGCAG	0.19
TTATTCACGTGGTGGT	0.21
TGTTCCACGTGTATTA	0.1
GAAGTCACGTGTCGTG	0.13
TGGGTCACGTGAGATA	0.32
TTGAGCACGTGGCGGT	-0.1
TAGTGCACGTGATAGA	0.04
TTGGTCACGTGCGTAA	-0.2
ATTGTCACGTGAATTT	0.24
CTGGACACGTGGTTTG	0.04
AGTTTCACGTGGACGA	0.29
TAAAACACGTGTGGGA	0.07
TTGCTCACGTGTTAAT	0.22
TGTTGCACGTGGCCAG	-0.05
AATTGCACGTGTACGT	-0.09
AAGGTCACGTGAGGAG	0.33
AAGATCACGTGGGTAG	-0.08
ATTGTCACGTGTGATG	0.14
TGTCGCACGTGGTGCA	-0.3

Sequence	relative binding free energy [kcal/mol]
TGATGCACGTGCAAGG	-0.06
ATTGGCACGTGGGCTT	-0.29
TATCGCACGTGTATTG	-0.08
TTATTCACGTGTAATG	0.32
TTCGTCACGTGGTCGT	0.06
TGGCTCACGTGCGGGC	0.27
CTGAGCACGTGGTGGT	0
GTGCGCACGTGAATGG	0.2
TGTGGCACGTGGGATT	-0.11
TTCTGCACGTGTTCGG	-0.02
TTGTTCACGTGTTGAT	0.28
GAGGTCACGTGCGTGG	-0.05
TGGATCACGTGCTTGA	0.11
TGTTTCACGTGTTGGC	0.25
TCGGGCACGTGCGAGG	-0.16
GGAGGCACGTGGTCAT	-0.23
TGCTACACGTGTGCGT	0.15
TGGTTCACGTGAATTA	0.3
GTTGACACGTGGATGA	0.02

Sequence	relative binding free energy [kcal/mol]
TTGGCCACGTGTCGGT	0.17
AGTATCACGTGACAGG	0.2
TAGGGCACGTGGGAGG	-0.19
TGCACCACGTGTTGTT	0.08
GGAGGCACGTGTGTTG	-0.02
TTAATCACGTGGAAGT	0.22
TAGTACACGTGTTGTC	0.06
TATTGCACGTGGGCAA	-0.18
GGTGACACGTGATAGG	0.26
GATAACACGTGATTTT	0.22
GATTGCACGTGAGAAG	0.27
GCTGTCACGTGGGGGC	-0.05
ATAGTCACGTGAAAAT	0.3
GGTCACACGTGGTTCG	0.07
GGGGGCACGTGTTGGG	0.02
ATTAACACGTGGGCGT	-0.07
TATATCACGTGGTAAA	-0.02
AAGGCCACGTGTAGTT	-0.06
TAGTTCACGTGTGGGG	0.31
